# Measurements taken from PubChem BioAssay AID1240 (Sanford-Burnham Center for Chemical Genomics, 2008).
# The campaign covered roughly 50,000 compounds. About 800 (1.6%) showed an effect of 50% or more. The list shows a part of the results.
# Molecular target: Bcl-2-like protein 10 (Homo sapiens) (UniProt Q9HD36)
# Experiment: Phenotype converters, Bcl-B/TR3 peptide binding displacement, primary biochemical FP (AID 1240);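 also: 0% = Bcl-B with tracer peptide and DMSO and 100% = tracer peptide lacking Bcl-B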
# Conditions: GST-Bcl-B / FITC-TR3 peptide fluorescence polarization; stronger effect = higher value; compound at 3.75 mg/L
# Sequence of UniProt Q9HD36 (Q9HD36 whole entry, looked up): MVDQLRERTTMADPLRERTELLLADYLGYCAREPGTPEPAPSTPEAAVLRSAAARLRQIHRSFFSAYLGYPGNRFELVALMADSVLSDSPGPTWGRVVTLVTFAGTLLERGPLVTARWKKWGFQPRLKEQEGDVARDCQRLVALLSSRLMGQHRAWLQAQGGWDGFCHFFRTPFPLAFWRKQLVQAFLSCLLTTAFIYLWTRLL
row,SMILES,displacement [%]
1,O=[N+]([O-])c1cccc(CN2CCN(Cc3cc(Br)ccc3O)CC2)c1,3
2,Cc1ccc(CC(C)CC(=O)NCc2ccccc2)cc1 (stereo unspecified),-8.4
3,COc1cc(SC)ccc1C(=O)n1nnc2ccccc21,9.2
4,CC(C)COc1ccc(C(=O)Nc2ccc(F)cc2)cc1,-11.6
5,CC1=NN(C(=O)c2ccc([N+](=O)[O-])cc2)C(O)(c2ccc(Cl)cc2)C1 (stereo unspecified),11.9
6,Cc1cc(Br)ccc1NCN1C(=O)S/C(=C/c2ccc3c(c2)OCO3)C1=O,33.3
7,CCOc1ccc(N2C(=O)NC(=O)/C(=C\c3ccc(OCc4cccc(C(=O)O)c4)cc3)C2=O)cc1,12.6
8,O=C(NC12CC3CC(CC(C3)C1)C2)c1ccccc1I,1.7
9,O=C1NC(=Nc2ccc(F)cc2)S/C1=C/c1ccccc1F,11.9
10,Nc1nnc(-c2ccccc2SCc2ccccc2)s1,-11.3
11,CCOC(=O)c1ccc(-n2c(C)cc(C=C3C(=O)c4ccccc4C3=O)c2C)cc1,11.9
12,O=C1c2ccccc2C(=O)N1/N=C/c1c(O)ccc2ccccc12,18.6
13,COc1ccccc1N1C(=O)c2ccc(C(=O)c3ccc4c(c3)C(=O)N(c3ccccc3OC)C4=O)cc2C1=O,-5.3
14,COc1ccc(-c2cc(C(=O)NCCN3CCOCC3)c3ccccc3n2)c(OC)c1,-0.4
15,O=C1C(Nc2ccccc2)=CC(c2ccccc2F)N1c1ccccc1 (stereo unspecified),9.5
16,COc1ccc(S(=O)(=O)Nc2cc(Cl)ccc2C)cc1,4.5
17,COc1ccccc1N1CCN(/N=C/c2cc(Br)ccc2F)CC1,12.9
18,C=CCn1c(N)c(-c2nc3ccccc3[nH]2)sc1=S,0.1
19,CCOC(=O)c1c(NC(=O)C(c2ccccc2)c2ccccc2)sc2c1CC(C)(C)OC2,2.1
20,O=C(NCCO)c1ccc(I)cc1,7.3
21,Cc1onc(-c2ccccc2)c1C(=O)N1CCN(C)CC1,13.1
22,COc1ccc(C(O)(CNCc2ccccc2)c2ccccc2)cc1 (stereo unspecified),-3.2
23,Cc1nc(Nc2nc(-c3ccccc3)cc(=O)[nH]2)nc2c(C)cccc12,13

row,SMILES,displacement [%]
1,O=C(Nn1c(O)c(/C=C2\C=Nc3ccccc32)sc1=S)c1cccc(O)c1,-66.2
2,COc1cccc(C(=O)Nc2nnc(COc3ccccc3F)s2)c1,-52.4
3,CCOC(=O)c1c(-c2ccccc2)csc1NC(=O)C1CCCN1S(=O)(=O)c1ccc(Cl)cc1 (stereo unspecified),13.7
4,CN1C(=O)NC(=O)/C(=C\c2cc(Cl)c(O)c(Cl)c2)C1=O,1.9
5,CCOc1ccccc1N1CCN(C(=O)c2cccc(F)c2)CC1,-7.9
6,CC(=O)Nc1ccc(NC(=O)c2ccc(N3C(=O)c4ccc(C(=O)Nc5ccc(NC(C)=O)cc5)cc4C3=O)cc2)cc1,9.6
7,Cc1ccccc1NC(=O)CCN1C(=O)S/C(=C\c2ccccc2)C1=O,-0.4
8,COc1ccc(C2=NN(CN3C(=O)C(=O)c4cc(Br)ccc43)C(c3ccccc3)C2)cc1 (stereo unspecified),-6.7
9,O=C(NC(=S)Nc1ccc([N+](=O)[O-])cc1)c1ccco1,8.8
10,COc1cc2nnc(/C=C/C(C)=O)c(-c3ccc(C)o3)c2cc1OC,48
11,O=C(CSc1ccc(/C=N/NC(=O)c2cccc(F)c2)o1)Nc1ccccc1,-3
12,COC(=O)c1ccc(CSc2nc3ccccc3[nH]2)cc1,14.6
13,C=CCc1ccccc1OCc1nnc(N)s1,4.5
14,COc1ccccc1NC(=O)/C=C1/c2ccccc2CC(C)(C)N1C,-2.1
15,Cc1cccc(-c2nc3sc4c(c3c(=O)o2)CCC4)c1,2.8
16,CCC(=O)N1CCN(c2cc(N3CCC(C)CC3)c(F)cc2[N+](=O)[O-])CC1,2
17,Cc1nc2ccccc2n1CC(=O)c1ccccc1,-8.6
18,O=C(Nc1ccc(Br)cc1)c1nn2c(c1Cl)NC(c1ccc(Cl)cc1)CC2C(F)(F)F (stereo unspecified),7.2
19,NC(=O)c1ccc(CN2CCC(Cc3ccccc3)CC2)cc1,-6.4
20,CCc1ccc(/C(=C2/OC(=O)c3ccccc32)[N+](=O)[O-])cc1,13.4
21,Cc1ccc(NC(=O)C2CC(=O)N(c3ccc(C)cc3)C2)cc1 (stereo unspecified),10.4
22,O=C(CCC(=O)OCC(F)(F)C(F)F)Nc1nc2ccccc2s1,14.3
23,O=S(=O)(Cc1ccccc1)c1nc2ccccc2n1Cc1ccc(Cl)c(Cl)c1,-3.7

row,SMILES,displacement [%]
1,COc1ccc(CN2CCN(C3CCCC3)CC2)c(OC)c1,-3.4
2,Cc1ccc(/C(O)=C/C(=O)C(=O)O)cc1,-5.3
3,CCOC(=O)C(Cc1ccccc1Cl)(NC(C)=O)C(=O)OCC,-7.2
4,CCOc1cc(C(=O)N2c3ccc(F)cc3CCC2C)cc(OCC)c1OCC (stereo unspecified),-8.4
5,COc1ccccc1CNCc1cccc(Oc2ccccc2)c1,-15.1
6,CCCCNC(=O)NC1C(NC(=O)NCCCC)N(C)C(=O)N1C (stereo unspecified),-9.7
7,CCOc1ccc(C2=Cc3cc(OC)c(OC)cc3S(=O)(=O)O2)cc1,5.2
8,CCN1CCN(Cc2c(O)ccc3c(=O)c(Oc4ccccc4Br)c(C(F)(F)F)oc23)CC1,-2
9,O=C(NC(=S)Nc1ccccc1)C12CC3CC(CC(C3)C1)C2,-4.3
10,CCOc1cc(C(=S)N2CCC(C)CC2)ccc1O,-7.2
11,CC(C)CCn1c(Cc2ccccc2)nc2ccccc21,13.2
12,Cc1c(C)c2ccc(OCC(=O)O)cc2oc1=O,10.1
13,CCCc1ncc(C(O)c2ccc(OCC)cc2)n1C (stereo unspecified),-8.5
14,CC1CN(C(=O)c2cc(Cl)ccc2Cl)CC(C)O1 (stereo unspecified),6.4
15,N/C(Cc1ccc([N+](=O)[O-])cc1)=N\OC(=O)COc1cccc2ccccc12,-17.2
16,Cc1ccc(C2C(C(=O)c3cccs3)=C(O)C(=O)N2c2nncs2)cc1 (stereo unspecified),121
17,Cc1ccccc1-c1n[nH]c(=S)n1-c1ccccc1,-30.9
18,CCCOc1ccc(/C=C/C(=O)c2ccc(F)cc2)cc1OCC,-1
19,CCCC1C(c2ccccc2)NC(c2ccccc2)C(C)C1(O)CCC (stereo unspecified),12
20,O=C(Nc1nccs1)c1cccc(NC(=O)c2ccco2)c1,-12
21,COc1cc(C(=O)Nc2ccc(C(=O)OC3CCCCC3)cc2)cc(OC)c1OC,-8.5
22,CCCOC(=O)c1ccc(NC(=O)c2cc(Cl)c(OC)c(Cl)c2)cc1,-3
23,COc1ccc(C(c2c(C)[nH]c3ccccc23)c2c(C)[nH]c3ccccc23)cc1OC,21.6

row,SMILES,displacement [%]
1,O=C(NCc1cccnc1)C(=O)Nc1ccccc1Cl,-11.3
2,CCC(C(=O)Nc1ccc(Cl)c([N+](=O)[O-])c1)c1ccccc1 (stereo unspecified),18.5
3,O=C(CN1C(=O)C2(OCCO2)c2ccccc21)c1ccccc1,4.8
4,CCOc1ccccc1N=Cc1c(O)n(C)c(=O)n(C)c1=O,5.2
5,O=C1NC(=S)N/C1=C/c1ccc(-c2cc([N+](=O)[O-])ccc2Cl)o1,18.2
6,O=C(CSc1nnc(-c2cccc(F)c2)n1-c1ccccc1)NCc1ccccc1,13.5
7,O=C(OCc1ccc2c(c1)OCO2)c1ccc(S(=O)(=O)N2CCCCC2)cc1,6.6
8,CCC(C)NC(=O)CN(c1cccc(Br)c1)S(=O)(=O)c1ccccc1 (stereo unspecified),2.4
9,NNc1nccc(Nc2ccccc2C(=O)O)n1,-29.4
10,COc1cccc(/C=N\NC(=O)CN2CCN(Cc3ccccc3)CC2)c1O,-21.8
11,Fc1ccccc1-c1nnc(-c2ccc3c(c2)OCO3)o1,11.9
12,Cc1ccc(-c2csc(NC(=O)c3ccccc3Cl)n2)cc1,9.1
13,CCn1c2ccccc2c2cc(NC(=O)c3cccnc3)ccc21,5.1
14,COCCCN1C(=O)/C(=C\c2cccs2)SC1=S,-8.2
15,CCOc1ccccc1-n1sc2c(c1=S)-c1cc(C)ccc1NC2(C)C,-5.3
16,COc1ccc(NC(=O)c2cnn3c2NC(c2ccccc2)CC3C(F)(F)F)cc1OC (stereo unspecified),4.2
17,CC(C)OCP(=O)(c1ccccc1)c1ccccc1,5
18,COc1ccc(S(=O)(=O)N2CCOCC2)cc1Br,-7.7
19,N#CSCCCCOc1ccc(I)cc1,13.7
20,COc1ccc(CNC(=O)C(=O)Nc2cc(C)cc(C)c2)cc1,9.7
21,Cc1cccc(/C(N)=N/OC(=O)Cc2ccc(Cl)cc2)c1,6.3
22,COc1ccc(Br)cc1C(=O)Nc1ccc(C)c(C)c1,7.6
23,C=CCOc1ccc(/C=C2/N=C(C)C(C(=O)OCC)=C2O)cc1OC,-2.1

row,SMILES,displacement [%]
1,CCC1=NN2C(=N)/C(=C/c3ccc(OCc4ccc(F)cc4)cc3)C(=O)N=C2S1,0.4
2,CSc1ccc(/C=N/NC(=O)COc2c(Br)cc(Br)cc2Br)cc1,7.9
3,N#C/C(=C\c1ccc(-c2ccc(Br)cc2)o1)C(N)=O,4.6
4,Nc1c(Cc2ccccc2)ccc2c1C(=O)c1ccccc1C2=O,10.3
5,CN(C)c1cccc(C(=O)NC2CCCCCC2)c1,5
6,COc1ccc(NC(=O)CN(c2ccccc2OC)S(=O)(=O)c2ccccc2)cc1OC,5.1
7,CCOc1ccc2nc(SCC(N)=O)sc2c1,-0.4
8,CCN(CC)CCCOc1ccc(C)cc1C(C)(C)C,5.2
9,Cc1ccc(-c2cc(C(F)(F)F)n3ncc(C(=O)NCC4CCCO4)c3n2)cc1 (stereo unspecified),2.5
10,Cc1nc2ccc(Cl)cn2c1C(=O)NN=C1CCCCC1,7.1
11,COc1cc(OC)cc(C(=O)N2CCN(C3CCCC3)CC2)c1,-23.1
12,Cc1ccc(Br)cc1S(=O)(=O)N1CCN(C(c2ccccc2)c2ccccc2)CC1,4.7
13,COc1ccc(OC)c(NC(=S)NC(NC(=O)c2ccco2)C(Cl)(Cl)Cl)c1 (stereo unspecified),-8.9
14,O=C(Nc1cc(C(F)(F)F)ccc1N1CCCCC1)c1cccc([N+](=O)[O-])c1,-9.9
15,CN1C(=O)/C(=C\c2ccc(OS(=O)(=O)c3ccccc3[N+](=O)[O-])cc2)SC1=S,35.7
16,COc1ccc(C2CC(=O)C3=C(C2)Nc2ccccc2NC3c2ccc(OCc3ccccc3)c(OC)c2)cc1OC (stereo unspecified),6.7
17,O=C(Nc1ccc(Cl)c(NC(=O)c2ccc(Cl)cc2Cl)c1)c1cccs1,15.4
18,CC1=NN(c2cccc(C(F)(F)F)c2)C(=O)/C1=C/c1cccs1,-10
19,CC(=O)c1cc(C(=O)Nc2ccc(C(=O)O)cc2)oc1C,-7.6
